Results published in PubChem BioAssay AID485281 (National Center for Advancing Translational Sciences (NCATS), 2010).
The campaign covered roughly 350,000 compounds. About 260 (0.074%) were called active. The shares of active, inactive and inconclusive entries below differ from those in the screen. Calls follow the shape of the dose curve; as a rule, active = well fitted inhibition curve with a large enough effect; inconclusive = small, poorly fitted or top-dose-only effect; inactive = no such curve, though single readings can be large or run the other way. Potencies of inconclusive entries are doubtful fits and often do not repeat.

What follows are compounds tested against Ferritin light chain (Equus caballus) (UniProt P02791) (assay: qHTS Assay for Identification of Novel General Anesthetics). Settings: apoferritin/1-aminoanthracene competitive binding, fluorescence; activity change, negative = displacement: at 77.5 µM (top of the series).
UniProt P02791, sequence (P02791 whole entry, looked up): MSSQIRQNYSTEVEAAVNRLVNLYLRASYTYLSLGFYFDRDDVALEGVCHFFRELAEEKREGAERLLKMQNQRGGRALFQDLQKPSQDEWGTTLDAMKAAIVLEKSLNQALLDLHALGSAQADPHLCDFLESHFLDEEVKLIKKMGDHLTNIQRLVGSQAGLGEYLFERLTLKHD
Method in brief: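 Horse-spleen apoferritin (10 uM) in 50% saturated 1-aminoanthracene in PBS was incubated 10 min at room temperature with compound. Fluorescence (ex 380, em 535 nm) was normalized to free and bound 1-AMA, with concentration-response fitted by a four-parameter Hill equation.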
% is scaled to controls: 0 for no effect and ±100 for the full control effect; potency is read from the fitted curve at half-maximal effect; tags tell the direction and shape of the fitted curve.
Also: nearly all actives have a fitted effect of over 20% in size.

Potency, inconclusive:
O=C(COC(=O)c1ccco1)c1ccc2ccccc2c1 35.5 µM [inhibitor, partial curve]
CCC(C)(C)c1ccc(Oc2ccc(N)cc2)cc1 35.5 µM [inhibitor, single point]
CCN(CCNC(=O)C1CCN(S(=O)(=O)c2cccc3nsnc23)CC1)c1ccccc1 28.2 µM [inhibitor, partial curve]
CCn1c(C)c(C(C)=O)c(N2CCN(c3ccccc3)CC2)nc1=S 28.2 µM [inhibitor, single point]
c1ccc2c3c([nH]c2c1)-c1[nH]ncc1CC3 39.8 µM [inhibitor, single point]
CCn1c(CSc2nc3ccccc3s2)nnc1SCC(=O)OC(C)(C)C 39.8 µM [inhibitor, single point]
Cc1csc(NC(=O)CSc2ccc(-c3ccccn3)nn2)n1 39.8 µM [inhibitor, single point]
O=C(Cn1nc(-c2cccc(Cl)c2)ccc1=O)Nc1cccnc1 50.1 µM [inhibitor, partial curve, poor fit]
O=C(c1ccc2c(c1)N(Cc1ccccc1F)C(=O)c1ccccc1S2(=O)=O)N1CCCC1 20 µM [inhibitor, partial curve]
O=C(CS(=O)(=O)Cc1ccccc1)Nc1nnc(C2CCCCC2)s1 14.1 µM [inhibitor, partial curve]
COC(=O)c1ccc(CSc2nnc(Nc3cccc(OC)c3)s2)o1 28.2 µM [inhibitor, partial curve]
O=C1C2C3C=CC(C3)C2C(=O)N1c1cccnc1 (configuration not stated) 50.1 µM [inhibitor, partial curve, poor fit]
COc1ccc(C(=O)CCC(=O)N2CCN(c3cc(C)ccc3C)CC2)cc1 28.2 µM [inhibitor, single point]
N#Cc1ccc(OS(=O)(=O)c2ccc(-c3ccon3)s2)cc1 44.7 µM [inhibitor, single point]
O=C(COc1ccc2c(c1)CCC2)N1CCc2ccccc21 39.8 µM [inhibitor, partial curve]
Cc1nn(-c2ccccc2)c(Cl)c1C(=O)OC(C)C(=O)Nc1ccc2c(c1)OCO2 (configuration not stated) 15.8 µM [inhibitor, partial curve]
CCC(C(=O)NC1CCCC1)N(Cc1ccc2c(c1)OCO2)C(=O)c1snc(C(N)=O)c1N (configuration not stated) 20 µM [inhibitor, partial curve]
COc1ccc(Cc2nnc(SCC(=O)N3CCCCC3)o2)cc1 31.6 µM [inhibitor, partial curve]
CC(=O)c1ccc(C(=O)N2CCCC(N3CCN(c4ccc(F)cc4)CC3)C2)s1 (configuration not stated) 17.8 µM [inhibitor, partial curve]
Cc1nn(CC(=O)NCc2ccccc2Cl)c(=O)c2nn(-c3ccccc3)c(C)c12 2.51 µM [inhibitor, partial curve]
CCCCn1c2ccc(F)cc2c2nnc(SCCN(CC)CC)nc21 39.8 µM [inhibitor, partial curve]
Cc1ccc(Sc2cnc3ccccc3n2)cc1 31.6 µM [inhibitor, single point]
COc1cccc(/C=N/NC(=O)CSc2ccccc2C)c1O 35.5 µM [inhibitor, partial curve]
Cc1cc(C)c(C#N)c(SCC(=O)C(C)(C)C)n1 12.6 µM [inhibitor, partial curve]
O=C(Nc1ccc(C(=O)N2CCCCC2)cc1)c1ccc(Br)cc1 31.6 µM [inhibitor, partial curve]
O=C1NC(=Nc2cccc(Cl)c2)SC1Cc1cccc(Cl)c1Cl (configuration not stated) 4.47 µM [inhibitor, full curve, poor fit]
CC12CCC(C/C1=N/O)C2(C)CBr (configuration not stated) 35.5 µM [inhibitor, single point]
CCn1nc(C)cc1C(=O)N1CCCC(N(C)CCc2ccc(OC)c(OC)c2)C1 (configuration not stated) 22.4 µM [inhibitor, partial curve]
CCn1c(CNC(=O)COc2ccc(C(C)C)cc2)nnc1SCC(=O)Nc1ccccc1 56.2 µM [inhibitor, single point]
Cc1ccc(C2(c3noc(CN4CCC(c5ccncc5)CC4)n3)CCCC2)cc1 39.8 µM [inhibitor, single point]
CC(C)N1C(=O)/C(=C\c2nc3ccccc3c(=O)[nH]2)c2ccccc21 39.8 µM [inhibitor, single point]
O=C(CN1C(=O)c2ccccc2S1(=O)=O)c1ccc(OC(F)F)cc1 28.2 µM [inhibitor, single point]
O=C(Nc1ccn(-c2ccccc2)n1)c1ccc(S(=O)(=O)N2CCCCCC2)cc1 8.91 µM [inhibitor, full curve]
CCN(CC)S(=O)(=O)c1ccc2nc(CSc3nnnn3-c3ccc(O)cc3)[nH]c2c1 12.6 µM [inhibitor, partial curve]
O=C1NC2(CCCCCC2)C(=O)N1Cc1ccccc1Br 22.4 µM [inhibitor, partial curve]
CN(C(=O)CSc1cn(CC(=O)N2CCCCCC2)c2ccccc12)c1ccccc1 25.1 µM [inhibitor, partial curve]
O=C(CCc1ccccc1)N1CCN(c2ccc([N+](=O)[O-])cc2)CC1 39.8 µM [inhibitor, partial curve]
Cc1cc(C)cc(-n2nnc(C(=O)NCc3ccccc3)c2N)c1 35.5 µM [inhibitor, partial curve]
CC/C(=C\C1CCCCC1)C(NP(=O)(c1ccccc1)c1ccccc1)c1ccccc1 (configuration not stated) 10 µM [inhibitor, full curve]
COC(=O)C1=C(C)N=C2SC(C)C(=O)N2C1c1ccc(C(=O)OC)cc1 (configuration not stated) 17.8 µM [inhibitor, partial curve]

Activity change, negative = displacement, inactive:
CNCc1c(OCc2ccccc2F)ccc2ccccc12 -14.3%
CCOc1ccc(Br)cc1C1=NN(C(C)=O)C(c2ccc([N+](=O)[O-])s2)O1 (configuration not stated) 3.05%
CC1=Nc2cc(C(=O)O)ccc2Sc2ccc(Br)cc21 -4.38%
O=C(NCC(c1cccnc1)N1CCc2ccccc21)c1cccc(C(F)(F)F)c1 (configuration not stated) -10%
O=C(CSc1nccn1Cc1ccc(F)cc1)Nc1ccc2c(c1)OCCO2 3.3%
Cc1nnc(NC(=O)c2oc3c(ccc4ccccc43)c2C)s1 -10.1%
Fc1cccc(/C=N/Nc2ccc(Cl)nn2)c1 0.429%
COc1ccc(C(=O)Nc2ccc3nc(SCC(=O)N4CCCc5ccccc54)sc3c2)cc1 58.2%
COc1ccc(CC(=O)Nc2oc(-c3ccccc3)c(-c3ccccc3)c2C#N)cc1OC -5.67%
CC(C)C[C@H](NC(=O)CNC(=O)[C@H](C)NC(=O)[C@H](CC(C)C)NC(=O)[C@H](CCCNC(=N)N)NC(=O)[C@H](Cc1cnc[nH]1)NC(=O)[C@@H](NC(=O)[C@@H](NC(=O)[C@@H]1CSSC[C@H](NC(=O)[C@@H](N)CO)C(=O)N[C@@H](CC(N)=O)C(=O)N[C@@H]([C@@H](C)O)C(=O)N[C@@H](C)C(=O)N[C@@H]([C@@H](C)O)C(=O)N1)C(C)C)[C@@H](C)O)C(=O)N[C@@H](CC(C)C)C(=O)N[C@@H](CO)C(=O)N[C@@H](CCCNC(=N)N)C(=O)N[C@@H](CO)C(=O)NCC(=O)NCC(=O)N[C@H](C(=O)N[C@H](C(=O)N[C@@H](CCCCN)C(=O)N[C@@H](CC(=O)O)C(=O)N[C@@H](CC(N)=O)C(=O)N[C@@H](Cc1ccccc1)C(=O)N[C@H](C(=O)N1CCC[C@H]1C(=O)N[C@H](C(=O)N[C@@H](CC(N)=O)C(=O)N[C@H](C(=O)NCC(=O)N[C@@H](CO)C(=O)N[C@@H](CCCCN)C(=O)N[C@@H](C)C(=O)N[C@@H](Cc1ccccc1)C(N)=O)C(C)C)[C@@H](C)O)C(C)C)C(C)C)C(C)C -21.2%
CCOC(=O)c1sc(NC(=O)c2sccc2C)cc1C -3.48%
CCN(CC)c1ccc(N=Cc2c(C)[nH]c3ccccc23)cc1 -21.8%
Cc1ccc(NC(=O)CC2SC(=O)NC2=O)cc1 (configuration not stated) 0.272%
O=C1C(=O)N(C2CCN(S(=O)(=O)c3ccc(F)cc3)CC2)CCN1Cc1ccccc1 -5.34%
O=C(NC1CCCCC1)c1ccc(Cn2c(SCc3cccc(F)c3)nc3cccnc32)cc1 -16.9%
COC(=O)CC1(C(=O)OC)Oc2ccc(Br)cc2C(=O)N1c1ccc(Br)cc1Cl (configuration not stated) -0.0147%
COC(=O)C/C=C\[C@@H](C)[C@@H](/C=N\OC[C@@H]1O[C@H](c2ccccc2)C=C[C@@H]1Oc1ccc(OC)cc1)NS(=O)(=O)c1ccc(C)cc1 -5.42% [at 15.3 µM]
COc1cc(/C=C(\C#N)C(=O)NC2CCCCC2)ccc1OCc1ccc(C(=O)O)cc1 -13.1%
COc1cc(-c2nnn(CC(=O)N3CCOCC3)n2)cc(OC)c1OC -7.35%
COc1cc(OC)c(NC(=O)c2ccc3nc(C(C)C)oc3c2)cc1Cl -9.12%
Cc1ccc2[nH]cc(C(c3ccccc3)c3cccs3)c2c1 (configuration not stated) -5.95%
N#Cc1nc(-c2ccccc2F)oc1NCCc1ccccc1 -4.5%
